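Step 1: Grow cells in 96-well plates. Step 2: Expose to compound for 48 hours at 5 concentrations. Step 3: Interpolate endpoints linearly; if unreached, use highest concentration. At the GI50, growth is halved.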 Certain results were filed several times, with different values. This is not the full list of results. The source may hold further records. For some of these results: The tests behind the records often covered other concentration ranges, not given here; some values may only mark the edge of a range.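 TGI: concentration producing complete growth inhibition.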 For some of these results: Results that share an entry repeat one measurement across runs, samples, wells, individuals or studies. A tag in brackets gives the origin of a value. The letters are not those of the source and start again with each entry.
Key:
Experiment in all cases: NCI-60 cell line screen, 48 h
HL-60(TB) leukemia = test system: HL-60(TB) leukemia
786-0 renal = test system: 786-0 renal
A498 renal = test system: A498 renal
A549 NSCLC = test system: A549 NSCLC
ACHN renal = test system: ACHN renal
DU-145 prostate = test system: DU-145 prostate
EKVX NSCLC = test system: EKVX NSCLC
HOP-62 NSCLC = test system: HOP-62 NSCLC
OVCAR-3 ovarian = test system: OVCAR-3 ovarian
OVCAR-5 ovarian = test system: OVCAR-5 ovarian
OVCAR-8 ovarian = test system: OVCAR-8 ovarian
SF-268 CNS = test system: SF-268 CNS
SF-539 CNS = test system: SF-539 CNS
SK-MEL-5 melanoma = test system: SK-MEL-5 melanoma
MALME-3M melanoma = test system: MALME-3M melanoma
SK-MEL-2 melanoma = test system: SK-MEL-2 melanoma

CCCCCN(CCCCC)CC(O)c1cc2c(c3ccccc13)CCCC2 (stereo unspecified)
TGI (HL-60(TB) leukemia): 8.51 µM [sample A, 1 test] and > 100 µM [sample B, 1 test]

COC(=O)[C@@H](C)C[C@H](Cc1ccccc1)NC(=O)c1csc([C@@H](C[C@H](C(C)C)N(C)C(=O)C2(NC(=O)[C@H]3CCCCN3C)CC2)OC(C)=O)n1
GI50 (786-0 renal): 69.8 nM and 3.33 nM
TGI (A498 renal): 64.3 nM and < 3.33 nM
GI50 (A549 NSCLC): 72.2 nM and 3.33 nM
GI50 (ACHN renal): 44.5 nM and 3.33 nM
TGI (DU-145 prostate): 222 nM and > 33.3 µM
GI50 (EKVX NSCLC): 144 nM and 5.23 µM
GI50 (HOP-62 NSCLC): 34 nM and 3.33 nM
TGI (OVCAR-3 ovarian): 8.1 nM and > 33.3 µM
GI50 (OVCAR-5 ovarian): 52 nM and 3.33 nM
GI50 (OVCAR-8 ovarian): 36.1 nM and 3.33 nM
GI50 (SF-268 CNS): 43.9 nM and 3.33 nM
TGI (SF-539 CNS): 45 nM and < 3.33 nM
TGI (SK-MEL-5 melanoma): 789 nM and 13.6 nM

Cc1ccc(S(=O)(=O)Nc2nc3ccccc3nc2Nc2ccc3nsnc3c2)cc1
TGI (MALME-3M melanoma): > 100 µM [sample A, 1 test] and 5.02 µM [sample B, 1 test]
TGI (SK-MEL-2 melanoma): 8.98 µM [sample A, 1 test] and > 100 µM [sample B, 1 test]

Reference: PubChem BioAssay (NCI)
